# Source: paper PMC4336329 (PLoS ONE, 2015)
# Screen size: about 310,000 compounds; about 14,000 (4.5%) showed an effect of 50% or more. The effect is printed as a negative number. The list shows a part of the results.
# Biological target: human ether-à-go-go-related gene (hERG) potassium channel (human, UniProt Q12809)
# Test: primary screen, population patch clamp on CHO cells stably expressing hERG
# 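Also: peak tail current of the secondary pulse compared with the same well before compound.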
# human ether-à-go-go-related gene (hERG) potassium channel, sequence (Q12809 whole entry, looked up): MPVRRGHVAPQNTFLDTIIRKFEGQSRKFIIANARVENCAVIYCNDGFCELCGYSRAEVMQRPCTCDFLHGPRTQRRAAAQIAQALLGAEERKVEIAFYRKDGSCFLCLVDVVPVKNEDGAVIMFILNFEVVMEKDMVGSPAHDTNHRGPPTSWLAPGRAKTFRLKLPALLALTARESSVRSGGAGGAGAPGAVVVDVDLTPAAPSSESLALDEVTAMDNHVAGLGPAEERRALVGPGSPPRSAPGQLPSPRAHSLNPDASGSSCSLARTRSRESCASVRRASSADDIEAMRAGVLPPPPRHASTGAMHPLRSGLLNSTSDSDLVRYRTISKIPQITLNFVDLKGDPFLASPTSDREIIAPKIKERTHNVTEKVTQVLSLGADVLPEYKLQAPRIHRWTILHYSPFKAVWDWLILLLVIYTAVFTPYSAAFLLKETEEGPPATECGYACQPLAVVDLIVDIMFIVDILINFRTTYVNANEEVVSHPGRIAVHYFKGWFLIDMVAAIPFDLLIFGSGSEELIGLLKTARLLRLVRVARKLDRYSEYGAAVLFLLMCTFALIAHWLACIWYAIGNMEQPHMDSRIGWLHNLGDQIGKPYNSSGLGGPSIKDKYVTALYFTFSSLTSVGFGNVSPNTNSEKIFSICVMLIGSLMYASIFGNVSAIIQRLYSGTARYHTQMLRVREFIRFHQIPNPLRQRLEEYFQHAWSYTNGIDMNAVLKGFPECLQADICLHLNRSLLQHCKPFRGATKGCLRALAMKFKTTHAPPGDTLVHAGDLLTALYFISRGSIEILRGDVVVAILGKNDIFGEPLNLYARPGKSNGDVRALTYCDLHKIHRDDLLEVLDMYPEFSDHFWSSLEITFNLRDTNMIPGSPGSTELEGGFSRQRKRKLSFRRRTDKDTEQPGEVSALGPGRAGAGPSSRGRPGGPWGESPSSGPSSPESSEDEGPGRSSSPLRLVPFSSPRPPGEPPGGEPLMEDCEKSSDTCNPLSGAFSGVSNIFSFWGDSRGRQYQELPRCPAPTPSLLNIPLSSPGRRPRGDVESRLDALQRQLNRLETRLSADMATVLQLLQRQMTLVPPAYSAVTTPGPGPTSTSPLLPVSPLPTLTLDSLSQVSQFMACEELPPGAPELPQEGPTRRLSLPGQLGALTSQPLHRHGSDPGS
row,Compound,"hERG current change (%, negative = inhibition) at 10uM"
1,Cc1ccc(Cl)cc1NC(=O)CN1CCN(C(=O)C2CCCO2)CC1 (stereo not shown),-29.8%
2,COc1ccc(NC(=O)c2ccc(NC(=O)CN(C)CC(=O)Nc3c(C)cccc3C)cc2)cc1,6.59%
3,CC(C)(C)c1ccc(C(=O)NCC(=O)OCC(=O)NC(=O)NC2CCCC2)cc1,-22.6%
4,Cc1ccc(CC2(O)CC(C)N(C)CC2C)c(C)c1 (stereo not shown),-0.00482%
5,O=C(/C=C\c1ccc2c(c1)OCO2)Nc1c2c(nn1-c1ccc(Cl)cc1)CSC2,5.12%
6,CCOC(=O)c1sc2nc(N3CCOCC3)c3c(c2c1N)CCN(Cc1ccccc1)C3,-11.4%
7,CC1Cc2ccccc2N1C(=O)CSc1nnnn1C (stereo not shown),-5.61%
8,CCn1cc(Br)c(C(=O)NCc2ccco2)n1,16%
9,O=C(NC(=O)N1CCCc2ccccc21)c1ccccc1,1.37%
10,C=CCNC(=O)c1cnn(-c2ccccc2)c1-c1ccccc1,10.4%
11,CC1=C(C(=O)NC(C)c2ccc3c(c2)OCCO3)C2(CCC(C)CC2)OC1=O (stereo not shown),0.419%
12,CCOc1ccc(NC(=O)Nc2ccc3nccnc3c2)cc1,0.442%
13,COc1ccc(-c2csc(N)n2)cc1F,28%
14,CC(C)(C)N1C(=O)c2ccc(C(=O)NCc3ccco3)cc2C1=O,-5.45%
15,COc1ccc(-n2nnc3c(SCC(=O)NCC4CCCO4)ncnc32)cc1 (stereo not shown),-8.74%
16,O=C(Nc1nnc(SCC(=O)N2CCCCC2)s1)C1CCCCC1,10.8%
17,CC(=O)N(C)c1ccc(NC(=O)c2ccccc2C(=O)O)cc1,-0.347%
18,CCN=C1SC(C(=O)Nc2cc(Cl)cc(Cl)c2)CC(=O)N1CC (stereo not shown),23.5%
19,CCOC(=O)C1=C(c2ccccc2)N2CCS(=O)(=O)N=C2S1,-7.75%
20,COc1cccc(C2/C(=C(/O)c3ccc4c(c3)CC(C)O4)C(=O)C(=O)N2CC2CCCO2)c1 (stereo not shown),11.8%
21,O=c1n(-c2ccccc2)c(=O)n2n1CC(O)C2,9.87%
22,CC1=C(C(=O)OCc2ccccc2)C(c2ccc(N(C)C)cc2)NC(=O)N1 (stereo not shown),12.3%
23,CCN(CC(=O)NCc1ccc(Cl)cc1)C(=O)CCc1ccccc1,-58.7%

row,Compound,"hERG current change (%, negative = inhibition) at 10uM"
1,C/C(CC(=O)Nc1cc(Cl)ccc1C)=N\NC(N)=O,10.7%
2,Cc1ccc(C(=O)Nc2ccc3c(c2)OCO3)cc1,-4.02%
3,CCc1ccc(C(=O)NNc2ccc(F)cc2F)cc1,10.8%
4,COc1cc(C(=O)NCc2ccccc2)ccc1OC(F)F,-14.7%
5,O=C(NCc1ccc(C(=O)N2CCC3(CC2)OCCO3)cc1)c1ccc2c(c1)OCO2,1.98%
6,CCN(CCC#N)c1ccc(N2C(=O)CCCC2=O)cc1[N+](=O)[O-],24.9%
7,Clc1ccc(C2=Nn3c(nnc3-c3n[nH]c4c3CCC4)SC2)cc1Cl,-6.34%
8,CCC(=O)OCCCCCCOc1ccc(C(=O)O)cc1,21.9%
9,Cc1ccc(S(=O)(=O)NCCC(=O)OCn2nnc3ccccc3c2=O)cc1,-10.3%
10,COc1ccc(S(=O)(=O)N(CC(=O)NC2CC3CCC2C3)c2ccccc2OC)cc1 (stereo not shown),-25%
11,C/C(=N/NC(=O)c1ccc(Cl)s1)c1ccc(NC(=O)COc2ccc(Cl)cc2)cc1,7.1%
12,C=CCOc1cccc(/C=C/c2nc3ccccc3c(=O)[nH]2)c1,9.98%
13,CCn1ccnc1C(O)c1cccc2ccccc12 (stereo not shown),15.7%
14,CCN(CC)C(=O)c1sc(NC(=O)c2cccnc2)c(C(=O)OC)c1C,-18.6%
15,O=C(c1ccc(N2C(=O)C3CC=C(Cl)CC3C2=O)cc1)N1CCOCC1 (stereo not shown),5.13%
16,Cc1ccc(S(=O)(=O)N2CCN(C(=O)Cc3ccccc3)CC2)cc1,-26.1%
17,CC(=O)C1=C(O)C(=O)N(Cc2ccccc2)C1c1ccccc1F (stereo not shown),11.6%
18,CN(CCC#N)C(=O)COC(=O)/C=C/c1ccc2c(c1)OCO2,10.7%
19,Cc1ccc(NC(=O)c2ccc(-n3cccn3)c([N+](=O)[O-])c2)cc1C,-2.66%
20,CCOCC(=O)Nc1ccc2c(c1)N(S(=O)(=O)c1cccs1)CCC2,-16.6%
21,FCCCOc1ccc(-c2nccc(-c3ccc(Br)cc3)n2)cc1,16.4%
22,O=C(N/N=C/c1ccc(F)cc1)c1ccc(OCc2ccccc2)cc1,21.4%
23,CCOc1ccc(/C=N/Nc2cc(N3CCOCC3)nc(C)n2)c(O)c1,-2.14%

row,Compound,"hERG current change (%, negative = inhibition) at 10uM"
1,NC(=O)c1ccsc1NC(=O)c1coc2ccccc2c1=O,-2.56%
2,Cc1ccc(NC(=O)c2ccc(S(=O)(=O)NCC3CCCO3)cc2)cc1C (stereo not shown),5.89%
3,CCCCCOC(=O)c1ccc(NC(=O)c2ccco2)cc1,-3.19%
4,CC12C(=O)N(Cc3ccco3)C(=O)C1C1c3ccccc3C2c2ccccc21 (stereo not shown),-4.41%
5,COc1ccc(-n2nnnc2SCC(=O)Nc2nc3c(s2)CCCC3)cc1,9.26%
6,O=C(Nc1nncs1)c1ccc2c(c1)OCO2,-28.6%
7,COc1ccc(C(=O)NCCCNC(=O)c2ccccn2)cc1Br,-3.18%
8,Cc1nc2c(-c3ccccc3)c(C)nn2c(C)c1CCC(=O)NC(C)CCc1ccco1 (stereo not shown),-66.6%
9,CC(NS(=O)(=O)c1ccccc1)C(c1cccs1)N1CCN(c2ccccc2)CC1 (stereo not shown),0.452%
10,CSCCC(NC(=O)c1ccc(C(C)(C)C)cc1)C(=O)O (stereo not shown),-0.162%
11,N#C/C(=C\c1cn(-c2ccccc2)nc1-c1cc2ccccc2o1)c1nc2ccccc2[nH]1,-3.54%
12,COc1ccc(C(=O)N2CCCC2=O)cc1,17%
13,Cc1cccc(Cc2ncc(C(F)(F)F)cc2Cl)c1,11.3%
14,COc1ccc(COC(=O)C2CC(=O)N(Cc3ccccc3)C2)cc1 (stereo not shown),-34.1%
15,Cc1ccc2cc(CN(CC(C)C)S(=O)(=O)c3cccc4nonc34)c(=O)[nH]c2c1,1.97%
16,O=C(Nc1ccccc1)N1CC=C(c2ccc(F)cc2)CC1,12.1%
17,CCOc1ccc2nc(NC(=O)c3ccccn3)sc2c1,6.42%
18,CC(C)(C)c1ccc(C(=O)N2CCC(C(=O)NCC3CCCO3)CC2)cc1 (stereo not shown),-23.6%
19,COc1ccc(NS(=O)(=O)c2ccc(NC(=O)C3CCCO3)cc2)cc1 (stereo not shown),-9.37%
20,CCOc1cc(C(=O)O)ccc1OCCOc1ccccc1,5.62%
21,O=C(NC12CC3CC(CC(C3)C1)C2)C1CC(=O)N(c2ccc(Br)cc2)C1 (stereo not shown),7.68%
22,Clc1cccc(Cl)c1C1=NOC(c2nnc(-c3ccccc3)o2)C1 (stereo not shown),-0.869%
23,CC12Cc3ccc4ccccc4c3C=C1C[N+](C)(C)C2.[Cl-] (stereo not shown),-2.5%

row,Compound,"hERG current change (%, negative = inhibition) at 10uM"
1,Cc1ccc(S(=O)(=O)NCc2ccc(C(=O)NCCN(Cc3ccccc3)C(C)C)cc2)cc1,-36.4%
2,Cc1ccc(OCC(=O)NNC(=S)NC(=O)c2ccc(Br)o2)c(C)c1,21.6%
3,CC(C)Cn1c(-c2ccc(Br)cc2)c[nH]c1=S,28.4%
4,CC1CCN(C(=S)Nc2ccc3nc4n(c(=O)c3c2)CCCCC4)CC1,-55.2%
5,CCOC(=O)c1cnc(-c2ccccc2)nc1C(F)(F)F,1.28%
6,CCc1ccccc1NC(=O)Nc1cccc(F)c1,6.94%
7,O=C(Nc1nnc(CCS(=O)(=O)c2ccc3ccccc3c2)s1)c1cccs1,2.13%
8,COc1ccc(NC(=O)C2CCC2)cc1S(=O)(=O)N1CCOCC1,-4.9%
9,CC(Oc1ccc(F)cc1)C(=O)/C=C\N(C)C (stereo not shown),3.1%
10,O=C(CS(=O)(=O)Cc1ccccc1)Nc1ccc(S(=O)(=O)N2CCCCCC2)cc1,-6.67%
11,CC(C)(C)S(=O)(=O)/C(C#N)=C/Nc1ccccn1,3.87%
12,COc1ccc(-n2c(C)nnc2SCC(=O)N2C(C)CCCC2C)cc1 (stereo not shown),-5.27%
13,COc1cc(-c2nc(=S)[nH][nH]2)cc(OC)c1OC,5.94%
14,CCC(C)Sc1nnc(Cc2cc(=O)[nH]c(=O)[nH]2)n1-c1ccc(F)cc1 (stereo not shown),16.1%
15,CC(=O)NC(C)C(c1cccs1)N1CCN(c2ccccc2)CC1 (stereo not shown),-1.08%
16,Nc1ccc(S(=O)(=O)c2ccc(Cl)cc2)cc1,-42%
17,CN(C(=O)Nc1ccc(Cl)c(Cl)c1)c1ccccc1C(=O)O,3.19%
18,Cc1ccc(C)c(-c2cc(C(=O)NN3CCOCC3)c3ccccc3n2)c1,-17.1%
19,Cc1sc2nc(SCC(=O)NCCO)n(C)c(=O)c2c1C,3.27%
20,Cc1nn(C)cc1S(=O)(=O)NCc1ccccc1Cl,18.6%
21,CN(c1ccc(C(=O)Nc2cccnc2)cc1)S(C)(=O)=O,0.0139%
22,Cc1ccc(S(=O)(=O)N(CC(=O)Nc2cccc(C(F)(F)F)c2)C(=O)N2CCN(C)CC2)cc1,9.98%
